Key:
cyno CD19 = test: Binding to 300.19 cells overexpressing cyno CD19 (FACS)
Procedure: (§1) The mouse cell line 300.19 was engineered to overexpress either human CD19 or cyno CD19. Cells were cultured in RPMI medium (Invitrogen #11875-093) with 10% FBS and 2-mercaptoethanol. Cells were harvested and resuspended in FACS buffer (PBS containing 1% FBS). 50,000 cells per well were plated in a V-bottom 96-well plate. Each cell line was incubated with serial dilutions of TBMs of Example 1 for one hour on ice. Cells were centrifuged for 4 min at 400×g and washed with FACS buffer. This was repeated twice, and then the cells were incubated with Alexa-647 labeled anti-human Fc secondary antibody (Jackson Immuno #109-605-098) for 30 min on ice. The cells were washed twice, then resuspended in 100 μL of FACS buffer. FACS data was collected on a Beckman Coulter Cytoflex and analysis was performed using CytExpert v2.3.

Nalm6 target cells [1] = test: Re-directed T cell cytotoxicity by CD19 TBMs, Nalm6 target cells; assay type: cell-based; settings: human pan T cells, E:T 3:1 or 5:1, 24-96 hr
Procedure: (§2) In one study, the TBMs were compared across multiple donor effector cells. Briefly, huCD19-expressing Nalm6 or Karpas422 target cells were engineered to overexpress firefly luciferase. Cells were harvested and resuspended in RPMI medium (Invitrogen #11875-093) with 10% FBS. 2,500 target cells per well were plated in a flat-bottom 384-well plate. Human pan T effector cells were isolated via MACS negative selection (Miltenyi Biotec #130-096-535) from two donors from cryopreserved PBMC (Cellular Technologies Limited #CTL-UP1) then added to the plate to obtain a final E:T ratio of 3:1 or 5:1. Co-cultured cells were incubated with a serial dilution of all constructs and controls. For normalization, average maximum luminescence refers to target cells co-incubated with effector cells, but without any test construct. […] Luminescence was measured on an Envision plate reader after a 10 minute incubation. Percent specific lysis was calculated using the following equation: Specific lysis (%)=(1−(sample luminescence/average maximum luminescence))*100
(§3) In one study, the TBMs were compared across multiple donor effector cells. […] For normalization, average maximum luminescence refers to target cells co-incubated with effector cells, but without any test construct. […] Luminescence was measured on an Envision plate reader after a 10 minute incubation. […]

Karpas422 target cells [2] = test: RTCC of NEG258-based TBMs with CD2 or lysozyme binding arm and blinatumomab, Karpas422; assay type: cell-based; settings: human pan T cells, E:T 3:1, 1:1, 1:3 or 1:5, 48-96 hr
Procedure: (§4) The purified TBMs were compared across multiple donor effector cells. Briefly, huCD19-expressing Nalm6 and Karpas422 target cells were engineered to overexpress firefly luciferase. Cells were harvested and resuspendend in RPMI medium (Invitrogen #11875-093) with 10% FBS. 5,000 target cells per well were plated in a flat-bottom 384-well plate. Human pan T effector cells were isolated via negative selection (Stemcell Technologies #17951) from two donors from cryopreserved PBMCs that were separated from a leukopak (Hemacare #PB001F-1) by Ficoll density gradient centrifugation. Purified T cells were then added to the plate to obtain a final E:T ratio of 3:1, 1:1, 1:3 or 1:5. Co-cultured cells were incubated with serial dilutions of all constructs and controls. For normalization, average maximum luminescence refers to target cells co-incubated with effector cells, but without any test construct. After an incubation of 48, 72 or 96 hr at 37° C., 5% CO2, OneGlo luciferase substrate (Promega #E6120) was added to the plate. Luminescence was measured on an Envision plate reader after a 10 minute incubation. Percent specific lysis was calculated using the following equation: Specific lysis (%)=(1−(sample luminescence/average maximum luminescence))*100

human CD19 = biological target: T1, human CD19 (Homo sapiens, UniProt P15391); test: Binding to 300.19 cells overexpressing human CD19 (FACS)
T1 construct: expressed in transfected cells; host or cells: mouse cell line 300.19
T1 sequence (P15391 20-556): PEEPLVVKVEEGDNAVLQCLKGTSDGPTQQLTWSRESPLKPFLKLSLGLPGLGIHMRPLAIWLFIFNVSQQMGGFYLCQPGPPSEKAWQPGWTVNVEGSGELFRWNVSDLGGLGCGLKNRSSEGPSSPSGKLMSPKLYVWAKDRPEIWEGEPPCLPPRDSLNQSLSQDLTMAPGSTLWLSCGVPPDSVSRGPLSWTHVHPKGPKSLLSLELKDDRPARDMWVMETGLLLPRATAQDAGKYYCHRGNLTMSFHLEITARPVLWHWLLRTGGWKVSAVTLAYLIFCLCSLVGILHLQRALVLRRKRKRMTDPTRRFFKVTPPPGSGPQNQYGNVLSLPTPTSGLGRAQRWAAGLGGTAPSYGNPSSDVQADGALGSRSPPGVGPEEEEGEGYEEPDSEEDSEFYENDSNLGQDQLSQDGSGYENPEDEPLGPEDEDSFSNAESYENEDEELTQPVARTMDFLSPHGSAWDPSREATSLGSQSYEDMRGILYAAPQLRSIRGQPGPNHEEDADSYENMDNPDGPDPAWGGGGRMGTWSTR
Procedure: as §1

Nalm6 target cells [3] = test: RTCC of NEG258-based TBMs with CD2 or lysozyme binding arm and blinatumomab, Nalm6; assay type: cell-based; settings: human pan T cells, E:T 3:1, 1:1, 1:3 or 1:5, 48-96 hr
Procedure: as §4

Karpas422 target cells [4] = test: Re-directed T cell cytotoxicity by CD19 TBMs, Karpas422 target cells; assay type: cell-based; settings: human pan T cells, E:T 3:1 or 5:1, 24-96 hr
Procedure: as §2, §3

B1: NEG258-based TBM: trispecific with NEG258-based CD19 binding arm, CD3hi anti-CD3 scFv and IgV domain of CD58 (CD58-6) (antibody)
heavy: QVQLVQSGAEVKKPGASVKVSCKASGYTFTTYWIQWVRQAPGQRLEWMGAVYPGDADTRYTQKFQGRVTLTADRSASTAYMELSSLRSEDTAVYYCGRDAGLEYYALDYWGQGTLVTVSSASTKGPSVFPLAPSSKSTSGGTAALGCLVKDYFPEPVTVSWNSGALTSGVHTFPAVLQSSGLYSLSSVVTVPSSSLGTQTYICNVNHKPSNTKVDKRVEPKSCGGGGSGGGGSEVQLVESGGGLVQPGGSLKLSCAASGFTFNTYAMNWVRQASGKGLEWVGRIRSKYNNYATYYADSVKDRFTISRDDSKSTLYLQMNSLKTEDTAVYYCVRHGNFGNSYVSWFAYWGQGTLVTVSSGGGGSGGGGSGGGGSGGGGSQAVVTQEPSLTVSPGGTVTLTCRSSTGAVTTSNYANWVQQKPGQAPRGLIGGTNKRAPWTPARFSGSLLGDKAALTLSGAQPEDEAEYFCALWYSNLWVFGGGTKLTVLGGGGSDKTHTCPPCPAPELLGGPSVFLFPPKPKDTLMISRTPEVTCVVVAVSHEDPEVKFNWYVDGVEVHNAKTKPREEQYASTYRVVSVLTVLHQDWLNGKEYKCKVSNKALAAPIEKTISKAKGQPREPQVCTLPPSREEMTKNQVSLSCAVKGFYPSDIAVEWESNGQPENNYKTTPPVLDSDGSFFLVSKLTVDKSRWQQGNVFSCSVMHEALHNHYTQKSLSLSPGK
light: EIVMTQSPATLSVSPGERATLSCRASQDVGTAVAWYQQKPGQAPRLLIYWASTRHTGIPARFSGSGSGTEFTLTISSLQSEDFAVYFCQQYANFPLYTFGQGTKLEIKRTVAAPSVFIFPPSDEQLKSGTASVVCLLNNFYPREAKVQWKVDNALQSGNSQESVTEQDSKDSTYSLSSTLTLSKADYEKHKVYACEVTHQGLSSPVTKSFNRGEC
chain: SQQIYGVVYGNVTFHVPSNVPLKEVLWKKQKDKVAELENSEFRAFSSFKNRVYLDTVSGSLTIYNLTSSDEDEYEMESPNITDTMKFFLYVLESGGGGSDKTHTCPPCPAPELLGGPSVFLFPPKPKDTLMISRTPEVTCVVVAVSHEDPEVKFNWYVDGVEVHNAKTKPREEQYASTYRVVSVLTVLHQDWLNGKEYKCKVSNKALAAPIEKTISKAKGQPREPQVYTLPPCREEMTKNQVSLWCLVKGFYPSDIAVEWESNGQPENNYKTTPPVLDSDGSFFLYSKLTVDKSRWQQGNVFSCSVMHEALHNRYTQKSLSLSPGK
binding to 300.19 cells overexpressing cyno CD19 (cyno CD19): bind to cell lines engineered to overexpress both human and cyno CD19 | cytotoxic activity against Nalm6 target cells (Nalm6 target cells [1]): more potent than the NEG218-based TBM | cytotoxic activity against Karpas422 cells (Karpas422 target cells [2]): superior cytotoxic activity | binding to 300.19 cells overexpressing human CD19 (human CD19): bind to cell lines engineered to overexpress both human and cyno CD19 | cytotoxic activity against Nalm6 target cells (Nalm6 target cells [3]): superior cytotoxic activity | cytotoxic activity against Karpas422 cells (Karpas422 target cells [4]): more potent than the NEG218-based TBM

B2: NEG218-based TBM: trispecific with NEG218-based CD19 binding arm, CD3hi anti-CD3 scFv and IgV domain of CD58 (CD58-6) (antibody)
heavy: EVQLVQSGAEVKKPGESLKISCKASGYSFTNYWMNWVRQMPGKGLEWMGMIHPSDSEIRLNQKFQGQVTLSVDKSIGTAYMQWSSLKASDTAMYYCSRWYYLSSPMDYWGQGTTVTVSSASTKGPSVFPLAPSSKSTSGGTAALGCLVKDYFPEPVTVSWNSGALTSGVHTFPAVLQSSGLYSLSSVVTVPSSSLGTQTYICNVNHKPSNTKVDKRVEPKSCGGGGSGGGGSEVQLVESGGGLVQPGGSLKLSCAASGFTFNTYAMNWVRQASGKGLEWVGRIRSKYNNYATYYADSVKDRFTISRDDSKSTLYLQMNSLKTEDTAVYYCVRHGNFGNSYVSWFAYWGQGTLVTVSSGGGGSGGGGSGGGGSGGGGSQAVVTQEPSLTVSPGGTVTLTCRSSTGAVTTSNYANWVQQKPGQAPRGLIGGTNKRAPWTPARFSGSLLGDKAALTLSGAQPEDEAEYFCALWYSNLWVFGGGTKLTVLGGGGSDKTHTCPPCPAPELLGGPSVFLFPPKPKDTLMISRTPEVTCVVVAVSHEDPEVKFNWYVDGVEVHNAKTKPREEQYASTYRVVSVLTVLHQDWLNGKEYKCKVSNKALAAPIEKTISKAKGQPREPQVCTLPPSREEMTKNQVSLSCAVKGFYPSDIAVEWESNGQPENNYKTTPPVLDSDGSFFLVSKLTVDKSRWQQGNVFSCSVMHEALHNHYTQKSLSLSPGK
light: EIVMTQSPATLSVSPGERATLSCRASQDVGTAVAWYQQKPGQAPRLLIYWASTRHTGIPARFSGSGSGTEFTLTISSLQSEDFAVYFCQQYSSYPYTFGQGTKLEIKRTVAAPSVFIFPPSDEQLKSGTASVVCLLNNFYPREAKVQWKVDNALQSGNSQESVTEQDSKDSTYSLSSTLTLSKADYEKHKVYACEVTHQGLSSPVTKSFNRGEC
chain: SQQIYGVVYGNVTFHVPSNVPLKEVLWKKQKDKVAELENSEFRAFSSFKNRVYLDTVSGSLTIYNLTSSDEDEYEMESPNITDTMKFFLYVLESGGGGSDKTHTCPPCPAPELLGGPSVFLFPPKPKDTLMISRTPEVTCVVVAVSHEDPEVKFNWYVDGVEVHNAKTKPREEQYASTYRVVSVLTVLHQDWLNGKEYKCKVSNKALAAPIEKTISKAKGQPREPQVYTLPPCREEMTKNQVSLWCLVKGFYPSDIAVEWESNGQPENNYKTTPPVLDSDGSFFLYSKLTVDKSRWQQGNVFSCSVMHEALHNRYTQKSLSLSPGK
binding to 300.19 cells overexpressing cyno CD19 (cyno CD19): bind to cell lines engineered to overexpress both human and cyno CD19 | binding to 300.19 cells overexpressing human CD19 (human CD19): bind to cell lines engineered to overexpress both human and cyno CD19
